Data reported in ChEMBL document CHEMBL1201862, “PubChem BioAssay data set” (2004).

test system: NCI-H322M; assay: NCI tumour cell line growth inhibition, 48 h

| Compound | GI50 |
| --- | --- |
| CCCCCCc1nn2c(-c3ccncc3)nnc2s1 | inactive: > 10 µM |
| O=C(O)CC(C(=O)O)C1c2ccccc2-c2ccccc21 (stereo not drawn) | inactive: > 100 µM |
| CC1(c2ccc(F)cc2)CC(c2ccc(F)cc2)=C(C#N)C(=C(C#N)C#N)N1 (stereo not drawn) | inactive: 14.6 µM |
| O=C(O)/C=C/c1c[nH]c(=O)[nH]c1=O | inactive: > 250 µM |
| NC1c2c(Br)sc(N3CCCC3)c2C(=O)C1O (stereo not drawn) | inactive: > 50 µM |
| CCOP1(=O)C=C(C)C(=C(Cl)Cl)C(C)=C1 (stereo not drawn) | inactive: 20.8 µM |
| CCC1(C)NN=c2s/c(=C/c3ccc(OC)cc3)c(=O)n2N1 (stereo not drawn) | inactive: > 100 µM |
| COc1ccc(OC)c(N2C(=O)CSC2c2cc(OC)c(OC)c(OC)c2)c1 (stereo not drawn) | inactive: > 100 µM |
| O=[N+]([O-])c1ccc(/C=N/Nc2nnc3c4ccccc4c4ncccc4c3n2)o1 | inactive: > 10 µM |
| COc1ccc(C(=O)C(Br)C(Br)C(=O)O)cc1 (stereo not drawn) | inactive: 34 µM |
| Cc1nc2n(c1/C=C1/C(=O)Nc3cccc(Cl)c31)CCS2 | inactive: > 100 µM |
| Cc1csc2c(=O)n(C3OC(CO)C(O)C3O)c(=O)[nH]c12 (stereo not drawn) | inactive: > 100 µM |
| N#CC(C(=O)C(=O)C(C#N)c1ccc(Br)cc1)c1ccc(Br)cc1 (stereo not drawn) | inactive: 13.2 µM |
| Cn1c(=O)c2c(nc3n2CCC(=O)N3CCCCl)n(C)c1=O | inactive: > 100 µM |
| CC(C)(C)OC1=C(OC(C)(C)C)C(O)(c2ccccc2)C1=O (stereo not drawn) | inactive: > 100 µM |
| Cc1ccc(S(=O)(=O)NC(=N)N(C)N=O)cc1 | inactive: > 100 µM |
| O=c1c(=O)c2c(Br)sc(Br)c2c1=O | inactive: > 100 µM |
| CCOC(=O)c1ccc2c(c1)nc1n2C(c2c(F)cccc2F)SC1 (stereo not drawn) | inactive: 25 µM |
| Nc1nc2ncc(SCc3ccc(C(=O)NC(CCC(=O)O)C(=O)O)cc3)cc2c(=O)[nH]1 (stereo not drawn) | inactive: > 100 µM |
| O=C(NCCNCCO)N/N=C/c1ccc(Cl)cc1 | inactive: 63.2 µM |
| NCCSc1nc2ccccc2s1 | inactive: 43.3 µM |
| COc1ccc2c(ccc3c(C(=O)NCCN(C)CCNC(=O)c4cn(C)c5c4ccc4cc(OC)ccc45)cn(C)c32)c1 | inactive: 2.32 µM |
| c1ccc2c(c1)[nH]c1c2nc2ncccn21 | inactive: > 100 µM |
| C[C@H]1C/C=C/[C@H]2[C@@H]3O[C@]3(C)[C@@H](C)[C@H]3[C@H](Cc4ccccc4)NC(=O)[C@]32OC(=O)O/C=C/[C@@](C)(O)C1=O [CYTOCHALASIN E] | active: 0.56 µM |

| Compound | GI50 |
| --- | --- |
| O=C1NCN(c2ccccc2)C12CCN(CCCSc1ccc(F)cc1)CC2 | inactive: 30.1 µM |
| O=C1CC(Sc2nc3ccc(I)cc3c(=O)n2Cc2ccccc2)C(=O)NN1 (stereo not drawn) | inactive: 28.1 µM |
| Cc1cc2c(cc1Cl)SC(c1ccccc1)C(=O)NS2(=O)=O (stereo not drawn) | inactive: 42.8 µM |
| C/C=C/[C@H](O[Si](C)(C)C(C)(C)C)[C@@H](O)/C=C/C(=O)OCC | inactive: 29.1 µM |
| Nn1c(Cc2ccc(Cl)cc2)n[nH]c1=O | inactive: > 100 µM |
| CCCCCCCCCc1cccc(N2C(N)=NC(N)=NC2(C)C)c1 | active: < 0.0161 µM |
| Cc1ccc(C(O)c2cnc(C)n2Cc2ccccc2)cc1 (stereo not drawn) | inactive: > 100 µM |
| Cc1cc(Cl)cc2c1NC(=O)/C2=N\Nc1ccccc1[N+](=O)[O-] | inactive: > 100 µM |
| CN(C)c1ccc(C=c2c3ccccc3n3c2c2ccccc2[n+]3C)cc1 | inactive: 1.77 µM |
| C=CCOc1cc(NC(=S)c2ccoc2C)ccc1OC | inactive: > 100 µM |
| CCOC(=O)NC(=O)c1cn(CC(=O)NCC(=O)NCC(=O)NCCCN2CCN(CCCNC(=O)CNC(=O)CNC(=O)Cn3cc(C(=O)NC(=O)OCC)c(=O)[nH]c3=O)CC2)c(=O)[nH]c1=O | inactive: > 100 µM |
| CCN1C(=O)/C(=C/Nc2ccccc2)S/C1=N/Nc1nc(-c2ccc(O)c(O)c2)cs1 | inactive: 11.6 µM |
| COc1ccc(CC2c3cc(OC)c(OC)cc3CC[N+]2(C)C)cc1OC (stereo not drawn) | inactive: > 100 µM |
| N#Cc1ccc(OC(=O)c2ccc(NC(=N)N)cc2)cc1.c1ccncc1 | inactive: > 100 µM |
| Nc1nc(NNc2ccc(Cl)c(Cl)c2)cc(=O)[nH]1 | inactive: 56.9 µM |
| c1ccc2c(c1)nnn2CNc1ccc(N2CCOCC2)cc1 | inactive: > 100 µM |
| Clc1ccc(/N=c2\oc3ccccc3cc2-c2nc3ccccc3[nH]2)c(Cl)c1 | active: 0.0662 µM |
| Cc1ccc([N+](=O)[O-])cc1S(=O)(=O)Nc1ccc(C2=NN(C(=O)c3ccccc3)C(c3cccs3)C2)cc1 (stereo not drawn) | inactive: 35.6 µM |
| Cc1ccc(NC(=O)c2cc3ccccc3c(/N=N\c3ccccc3O)c2O)c(C)c1 | inactive: 3.48 µM |
| O=C(CC(=O)C(=O)CC(=O)OCc1ccccc1)OCc1ccccc1 | inactive: > 100 µM |
| CCOC(=O)CCCN | inactive: > 100 µM |
| Nc1ccc(C(=O)NN2C(=O)C(Cl)C2c2ccccc2Cl)cc1 (stereo not drawn) | inactive: 15.2 µM |
| COC1(OC)CC2C(=O)N(Cc3ccccc3)C1C(S(=O)(=O)c1ccccc1)C2C(C)S(=O)(=O)c1ccccc1 (stereo not drawn) | inactive: > 100 µM |
| COC1OC(C(=O)CP(=O)(OC)OC)C(OCc2ccccc2)C(OCc2ccccc2)C1OCc1ccccc1 (stereo not drawn) | inactive: 16 µM and inactive: 16.9 µM |

| Compound | GI50 |
| --- | --- |
| CCC(/C=C/C1OC(=O)C=CC1C)=C\C(C)C/C=C/C(C)=C/C(C)C(=O)C(C)C(O)C(C)C/C(C)=C/C(=O)O (stereo not drawn) | inactive: 2.92 µM |
| O=C1C=C(Nc2cc(Cl)ccc2Cl)c2ccccc2C1=O | inactive: 13.8 µM |
| CC(C)=CC1CC(C)C2(CCC3(C)CC4C(C(=O)CC4(C)O)/C(C=O)=C\CC32)O1 (stereo not drawn) | active: 0.432 µM |
| O=C1CCCC2=C1C(c1ccc3c(c1)OCO3)Nc1ccc3ccccc3c12 (stereo not drawn) | inactive: > 100 µM |
| COC(=O)C1=C(C(=O)OC)SC2(S1)C1=C(CCC1)SC(C(=O)OC)=C2C(=O)OC | inactive: 17.2 µM |
| O=c1cc(-c2ccccc2)oc2ccc(Oc3nnnn3-c3ccccc3)cc12 | inactive: > 100 µM |
| O=C1c2cccc3cccc(c23)C(=O)N1CCN(CCO)CCO | inactive: 26.9 µM |
| COc1ccc(C2NCCc3c2[nH]c2ccccc32)cc1 (stereo not drawn) | inactive: > 100 µM |
| O=C1C2=C(c3ccccc31)C(c1ccc([N+](=O)[O-])cc1)NC(S)=N2 (stereo not drawn) | inactive: > 100 µM |
| O=S(=O)(O)c1ccc(Nc2ccnc3cc(Cl)ccc23)cc1 | inactive: > 100 µM |
| COc1ccc(/C=C2\CC3C4CC=C5C[C@@H](O)CC[C@]5(C)C4CC[C@]3(C)\C2=N\O)cc1OC (stereo partly drawn) | inactive: 43.2 µM |
| CC(OP(=O)(O)O)C(N)C(=O)O (stereo not drawn) | inactive: > 100 µM |
| CCOC(=O)/C=C(\C)Sc1cc(O)c2ccccc2c1O | inactive: 17.7 µM |
| COC(=O)c1ccc(N/C=C(/C#N)c2ccsc2)cc1 | inactive: 16.8 µM |
| CCCCC1(N=[N+]=[N-])C(=O)C2C=CC=C3c4ccccc4N(C1=O)C32 (stereo not drawn) | inactive: 28.4 µM |
| CCOc1ccccc1NC(=O)/C=C1\NC(=O)CS1 | inactive: > 100 µM |
| O=c1c2c([nH]c3cc4c(cc13)OCO4)-c1ccccc1C2 | inactive: 34.8 µM |
| [O-][S+]1Cc2ccccc2CSS1 (stereo not drawn) | inactive: > 100 µM |
| CN(C)c1ccc(N2C(=S)SC(=N\c3ccccc3)/C2=N/c2ccccc2)cc1 | inactive: > 100 µM |
| CC(C)c1ccc2c(c1)CCC1C(C)(C)[C@@H](O)CC[C@]21C (stereo partly drawn) | inactive: 31.2 µM |
| C/C1=C\CC[C@@]2(C)O[C@@H]2[C@H]2OC(=O)C(C)C2C[C@H]1O (stereo partly drawn) | inactive: > 100 µM |
| NCCOCn1cc(Cc2cccc(OCc3ccccc3)c2)c(=O)[nH]c1=O | inactive: > 100 µM |
| COc1ccc(/N=N/N2CCCC2)cc1 | inactive: > 100 µM |
| Cc1ccc(SC2C(C)(C)N(C(C)C)P2(=O)N(C(C)C)C(C)C)cc1 (stereo not drawn) | inactive: > 100 µM |

| Compound | GI50 |
| --- | --- |
| COC(=O)[C@]1(C)CCC[C@]2(C)C3CC4OOC3(C=C4C(C)C)CCC21 (stereo partly drawn) | inactive: 22.3 µM |
| CCOC(=O)CCC(NC(=O)c1ccc(Nc2nc3ccccc3nc2C(=O)OCC)cc1)C(=O)OCC (stereo not drawn) | inactive: 14.3 µM |
| c1ccc2c(CNCCCCCCCCNCc3cccc4ccccc34)cccc2c1 | inactive: 1.71 µM |
| COC(=O)c1c(OC(C)=O)ccc2c1c1c(OC(C)=O)c3ccccc3c(OC(C)=O)c1n2Cc1ccccc1 | inactive: 5.78 µM |
| CC(=O)Nc1ccc(-c2nnc(SCC(=O)Nc3cccc([N+](=O)[O-])c3)o2)cc1 | inactive: 25.4 µM |
| Cc1ccc(C)c(NC(=O)C(Cc2c[nH]c3ccccc23)NC(=O)OCc2ccccc2)c1 (stereo not drawn) | inactive: 15.6 µM |
| O=S(=O)(/C=C/C=C/[S+]([O-])c1ccccc1)c1ccccc1 (stereo not drawn) | inactive: > 10 µM |
| O=C(Nc1ccc(Cl)cc1Cl)C1C(=O)C(=O)N(c2ccc(Cl)cc2Cl)C1=O (stereo not drawn) | inactive: > 100 µM |
| CCO[C@]12C[C@H](OC)[C@@]3(O)CC(C1[C@H]3OCc1ccccc1)C13C4C2[C@H](OC)C1[C@](COC)(CN4CC)[C@H](O)C[C@@H]3OC (stereo partly drawn) | inactive: > 100 µM |
| N#Cc1c(/C=C/c2ccccc2)c2c([nH]c1=S)CCCCC2 | inactive: > 100 µM |
| O=C1CC(O)c2c(Cl)sc(Cl)c21 (stereo not drawn) | inactive: 18.9 µM |
| O=S(=O)(O)c1cc(/N=[N+](\[O-])c2ccc(/N=N/c3ccccc3)cc2S(=O)(=O)O)ccc1/C=C/c1ccc(/N=[N+](\[O-])c2ccc(/N=N/c3ccccc3)cc2S(=O)(=O)O)cc1S(=O)(=O)O | inactive: > 100 µM |
| O=c1[nH]c(=O)n(C2CC(O)C(CO)O2)cc1/N=N/NCCCc1ccccc1 (stereo not drawn) | inactive: > 100 µM |
| CC(=O)NC1(C)CCC(C(C)(C)NC(C)=O)CC1 (stereo not drawn) | inactive: > 100 µM |
| N=C1OC(CN2CCN(c3ccccc3)CC2)CN1C(=O)Nc1ccccc1 (stereo not drawn) | inactive: > 100 µM |
| CN1C(=O)C(=CN)C(=O)N(C)C1=O | inactive: > 100 µM |
| CCc1ccc(Nc2cc(=O)[nH]c(=S)n2C)cc1 | inactive: > 100 µM |
| C=C(C)C1Cc2c(cc(OC)c3c(=O)c4ccccc4n(C)c23)O1 (stereo not drawn) | inactive: > 100 µM |
| COC(=O)Nc1nc2cc(S(=O)(=O)NC(CC(C)C)C(=O)OC)ccc2[nH]1 (stereo not drawn) | inactive: 4.15 µM |
| C/C(=C\COc1cc(O)c2c(c1)C(=O)c1cc(C)cc(O)c1C2=O)CCC1OC1(C)C (stereo not drawn) | inactive: > 100 µM |
| C=C1C(=O)OC2/C=C(\C(=O)O)CC/C=C(\C)CC(OC(=O)/C=C(\C)CC)C12 (stereo not drawn) | inactive: 16.8 µM |

Where “and” joins values, the source holds several entries; their conditions need not be identical. Equal entries are not always repeated.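 Step 1: Grow cells in 96-well plates. Step 2: Expose to compound for 48 hours at 5 concentrations. Step 3: Interpolate endpoints linearly; if unreached, use highest concentration. At the GI50, growth is halved.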 Calls of active or inactive are those of the source. Cut-off read from the data, not from the text of the source: active = GI50 up to about 1.1 µM and inactive = higher.
